Hit rate of the full screen: of about 310,000 compounds, about 14,000 (4.5%) showed an effect of 50% or more. Effects have a minus sign here. Some of the results follow.
These molecules were tested against human ether-à-go-go-related gene (hERG) potassium channel (human, UniProt Q12809) (assay: primary screen, population patch clamp on CHO cells stably expressing hERG).
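Also: peak tail current of the secondary pulse compared with the same well before compound.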

Chain of human ether-à-go-go-related gene (hERG) potassium channel (Q12809 whole entry, looked up): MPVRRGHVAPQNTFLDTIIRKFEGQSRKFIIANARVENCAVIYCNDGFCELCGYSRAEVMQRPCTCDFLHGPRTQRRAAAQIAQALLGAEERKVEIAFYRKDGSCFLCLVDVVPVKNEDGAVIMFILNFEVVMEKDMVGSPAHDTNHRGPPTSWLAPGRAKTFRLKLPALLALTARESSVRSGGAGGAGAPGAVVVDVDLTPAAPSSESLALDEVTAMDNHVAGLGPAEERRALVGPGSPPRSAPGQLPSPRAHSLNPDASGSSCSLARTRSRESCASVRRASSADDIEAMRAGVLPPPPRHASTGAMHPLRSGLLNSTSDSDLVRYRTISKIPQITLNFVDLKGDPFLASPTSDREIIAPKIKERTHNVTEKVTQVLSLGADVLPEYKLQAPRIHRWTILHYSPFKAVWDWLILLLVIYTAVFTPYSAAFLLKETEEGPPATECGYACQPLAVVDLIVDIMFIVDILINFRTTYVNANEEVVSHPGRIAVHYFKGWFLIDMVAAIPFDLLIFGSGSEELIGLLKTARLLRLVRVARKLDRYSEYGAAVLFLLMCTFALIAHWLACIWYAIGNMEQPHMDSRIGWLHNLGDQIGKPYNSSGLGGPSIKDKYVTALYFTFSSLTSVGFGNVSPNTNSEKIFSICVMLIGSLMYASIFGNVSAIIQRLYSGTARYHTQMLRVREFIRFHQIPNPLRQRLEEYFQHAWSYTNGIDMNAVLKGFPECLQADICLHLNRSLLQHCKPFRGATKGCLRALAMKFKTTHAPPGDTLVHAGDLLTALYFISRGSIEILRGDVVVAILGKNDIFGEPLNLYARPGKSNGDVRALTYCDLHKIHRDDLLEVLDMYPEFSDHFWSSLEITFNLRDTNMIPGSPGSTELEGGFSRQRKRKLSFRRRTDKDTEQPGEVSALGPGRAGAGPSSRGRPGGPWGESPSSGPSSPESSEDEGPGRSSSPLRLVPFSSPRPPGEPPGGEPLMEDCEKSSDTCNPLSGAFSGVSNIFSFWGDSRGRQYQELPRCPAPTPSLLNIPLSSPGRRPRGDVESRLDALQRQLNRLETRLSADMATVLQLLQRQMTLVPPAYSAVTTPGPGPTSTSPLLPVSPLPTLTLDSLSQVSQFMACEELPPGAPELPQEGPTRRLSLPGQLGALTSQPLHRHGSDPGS

| SMILES | hERG current change (%, negative = inhibition) at 10uM [%] |
| --- | --- |
| N#C/C(N)=C(/N)C#N | 19.6 |
| OCC[C@@H]1C[C@H](O)[C@@H](O)[C@@]2(OCCc3ccccc32)O1 | 17.4 |
| Cc1ccc(-c2nc3ncccc3o2)cc1NC(=O)c1cccs1 | -6.5 |
| COc1ccc(NC(=O)CC(NC(C)c2ccccc2)C(=O)O)cc1 (stereo not shown) | 13.1 |
| N#Cc1ccc(-c2ccc(OCC(=O)Nc3cccnc3)cc2)cc1 | -0.562 |
| CCOC(=O)N1CCN(C(=O)CN(C)S(=O)(=O)c2ccc(F)cc2)CC1 | 16.8 |
| COc1ccc(N(C)S(=O)(=O)c2cccc(C(=O)Nc3ccc4c(c3)OCCO4)c2)cc1 | -12 |
| Cc1ccc(S(=O)(=O)N2CCN(C(=O)CSc3nccn3C)CC2)cc1 | 17 |
| O=C(CSCCO)Nc1cc(C(F)(F)F)ccc1Cl | -5.84 |
| CCn1c(SCC(=O)Nc2nncs2)nnc1-c1ccco1 | 17.2 |
| O=c1[nH]cn[nH]1 | 9.87 |
| O=C(CCc1nc2ccccc2c(=O)[nH]1)OCc1nnc(-c2ccccc2)o1 | -2.15 |
| CCC(=O)N1c2ccccc2NC2=C(C(=O)CC(C)(C)C2)C1c1ccc(O)c(OC)c1 (stereo not shown) | 19.5 |
| CSc1nc(NCC(C)C)c2c3c(sc2n1)CN(C)CC3 | -44.2 |
| Cc1ccc(NC(=O)CCN2CC(C)OC(C)C2)cc1C.Cl (stereo not shown) | 19.1 |
| CSc1ccc(C=O)cc1 | 15.3 |
| CNC(=O)c1[nH]cnc1C(=O)Nc1ccc(Cl)cc1 | 5.84 |
| Cc1n[nH]c(=O)c2c(NC(=O)CSc3nncn3C(C)C)oc(C)c12 | 2.97 |
| Cc1cc(-c2ccccc2)nc(N/N=C/c2ccccc2)n1 | -32.4 |
| CCOc1ccc(N(CC(=O)NCCSCc2ccccc2)S(=O)(=O)c2ccccc2)cc1 | 11.2 |
| CC(=O)OCC(OC(C)=O)C(OC(C)=O)C(OC(C)=O)C(=O)Nc1ccc(C)cc1 (stereo not shown) | -10.7 |
| CCOc1cc(N2CCOCC2)c(OCC)cc1NC(=O)Cn1cnc2c(=O)n(C)c(=O)n(C)c21 | -2.33 |
| COc1ccc(CCNC(=O)CCS(=O)(=O)c2ccc3c(c2)NC(=O)CS3)cc1OC | 4.12 |
| COC(=O)CN1C(=O)N(c2ccccc2)C(N(O)C(=O)Nc2ccccc2)C1(C)C (stereo not shown) | 3.63 |
| Cc1ccc(-c2nnn(CC(=O)N(Cc3cccs3)C(C(=O)NC3CCCC3)c3ccncc3)n2)cc1 (stereo not shown) | -13 |

Source: paper PMC4336329 (PLoS ONE, 2015)
